Results reported in PMC12136788.
Some of the results follow.

B1: chr14:55048714:55048815:+|3pUTR|ENSG00000180008|msi1|total|mutant (ssRNA)
RNA: GGGAGUUCUACAGUCCGACGAUCUUUCUAAUUUUGAACAGAUGACUCAGUCCUAAAUCUUUGCCUUUAUUUCCUAUAAAAUGCCGGUGAUACUUGUAACUCGACUUCCUGGAGUUAAUUCUUCAGCAAGAGGUGACCCUGGGACAACAGAGGAUUGAGCAUCA
B2: chr1:178442813:178442920:+|CDS|ENSG00000075391|unk|total|mutant (ssRNA)
RNA: GGGAGUUCUACAGUCCGACGAUCAAAGCAGACAAUAUUUUCUGGGGCGAACAUUUUGAAUUCUUCAGCCUUCCACCUCUUCACCGUAUCACAGUUCACAUUUACAAGGAUGUGGAAAAAAAGAAAAAAAAGGACAAGAAUAAUCAACAGAGGAUUGAGCAUCA
B3: chr1:193014253:193014354:-|3pUTR|ENSG00000116750|unk|FALSE|unique (ssRNA)
RNA: GGGAGUUCUACAGUCCGACGAUCUUAAUAGGUAUAAGGAUUUUUCUUAUUAAUCUAAUAAAAUUCCUUAAUAGGAAUUUCCAUAGCUUAAGAGUGGUUUAUUUUAUCUGCAUCUUCUUUGGUGAUUGCAAAUCCCUUGUGAUACAACAGAGGAUUGAGCAUCA
B4: chr1:93365539:93365640:+|3pUTR|ENSG00000117505|unk|total|mutant (ssRNA)
RNA: GGGAGUUCUACAGUCCGACGAUCAGGAGGCAAAAUUGCACCCUGUUGAAAACCACCACCUCCGAUCAUCCCGGUUUUACUUUCCGGAUAAGACACUUGAGGGAAAGGCUGUGAAACUGAACCUCUGUCCGAAGCAACACACAGCAACAGAGGAUUGAGCAUCA
B5: chr3:58171454:58171555:+|3pUTR|ENSG00000136068|msi1|total|mutant (ssRNA)
RNA: GGGAGUUCUACAGUCCGACGAUCGGUGAUUAUUUCUUGCAGAAUCACCACACGAGACCAUCCCGGCAGUCAUGGUUUUGCUUCCGUUUUCCAAGUCCGUUUCAGUCCCUUCCUUGGUCUGAAGAAAUUCUGCAGUGGCGAGCACAACAGAGGAUUGAGCAUCA
B6: chr17:81922623:81922724:-|CDS|ENSG00000197063|msi1|total|mutant (ssRNA)
RNA: GGGAGUUCUACAGUCCGACGAUCUGCCGCCGGCCUGGGGCCCCUCGUCCCAGGCAAGGUGGCCGCCACCAGCGUCAUCACAACCGUAAAGUCCAAGACGGAUGCCCGAUCGCCGGGACGCGCGUCUGCCCAGGCGGGUCUUUGCAACAGAGGAUUGAGCAUCA
B7: ENSG00000198589:be:win_2901|CDS|ENSG00000198589|bound_else_gene|NA|bound_elsewhere_windowed (ssRNA)
RNA: GGGAGUUCUACAGUCCGACGAUCUUCAGUAGGAUCCCAGCAACCAGAUACGAAGGAUUCUCCUGUCUGUCCUCAUUUCACCACAAAUGGUAAUGAAAAUUCAAGUAUAGAGAAGACAAGUUCACUAGAAUCUGCAUCUAAUAUCAACAGAGGAUUGAGCAUCA
B8: chr22:36281679:36281692:-|3pUTR|ENSG00000100345|msi1_unk|FALSE|overlapping (ssRNA)
RNA: GGGAGUUCUACAGUCCGACGAUCUCUUGUGUCUACUCUAGGACUGGGCCCGAGGGUGGUUUACCUGCACCGUUGACUCAGUAUAGUUUAAAAAUCUGCCACCUGCACAGGUAUUUUUGAAAGCAAAAUAAGGUUUUCUUUUUUCAACAGAGGAUUGAGCAUCA
B9: chr12:24812190:24812291:-|3pUTR|ENSG00000060982|msi1|FALSE|unique (ssRNA)
RNA: GGGAGUUCUACAGUCCGACGAUCUUUACUAUCUCCUAUCCUGAUAGGUGGAAGGUUUACUGAAUUGGAAAUUGGUUGACUAUUAGUUUUUAACUAAAAUGUGCAAUAACACAUUGCAGUUUCCUCAAACUAGUUUCCUAUGAUCAACAGAGGAUUGAGCAUCA
B10: chr17:5489330:5489445:+|CDS|ENSG00000167842|unk|FALSE|unique (ssRNA)
RNA: GGGAGUUCUACAGUCCGACGAUCACGUUGACUUUCUUUGAUGAGCUUCAUAAUGUUGGCAGAGAUCAUGGGACUAGUGAUUUUAGGGAGAGUUUAGUAUCCCUGGUUCAGAACUCCAGAAAACUACAGAACAUUAGAGACAAUCAACAGAGGAUUGAGCAUCA
B11: ENSG00000107863:be:win_4951|CDS|ENSG00000107863|bound_else_gene|NA|bound_elsewhere_windowed (ssRNA)
RNA: GGGAGUUCUACAGUCCGACGAUCGAGAGGCUUUUCCGAGGAAAACUGCAAGAAGUGACUAAGAGCAGCCGGAGAAAUUCUGAAGGAAGUGAAUUAAGUUGCACCGAGGGAAGUUUAACAUCAAGUUUAGAUAGCCGGAGACAGCAACAGAGGAUUGAGCAUCA
B12: ENSG00000198589:be:win_1801|CDS|ENSG00000198589|bound_else_gene|NA|bound_elsewhere_windowed (ssRNA)
RNA: GGGAGUUCUACAGUCCGACGAUCACAGUCAACAUAUAUAACACCAUUCGGAGAGUUGGAACAGUGCUUCUCAUCAUGCACACGCUGAAGUACUACUACUGGGCAGUGAAUCCUCAGGAUCGAAGUGGUAUCACCCCAAAAGGACAACAGAGGAUUGAGCAUCA
B13: chr1:159061598:159062691:-|three_prime_utr|ENSG00000163568|control|control|control (ssRNA)
RNA: GGGAGUUCUACAGUCCGACGAUCUCAAUCAGAUUGUAAGUUACCUGAAAGCUGCAGUUCACAGGCUCCUCUCUCCACCAAAUUAGGAUAGAAUAAUUGCUGGAUAAACAAAUUCAGAAUAUCAACAGAUGAUCACAAUAAACACAACAGAGGAUUGAGCAUCA
B14: chr19:811491:811550:+|3pUTR|ENSG00000011304|msi1_unk|FALSE|overlapping (ssRNA)
RNA: GGGAGUUCUACAGUCCGACGAUCUAGCAAUAUUUCCAGUUGACCAAAUAUUCUAAUCUUUUUUCAUUUAUAUGCAAAAGAAAUAGUUUUAAGUAACUUUUUAUAGCAAGAUGAUACAAUGGUAUGAGUGUAAUCUAAACUUCCCAACAGAGGAUUGAGCAUCA
B15: chr4:138167974:138168075:-|3pUTR|ENSG00000151012|msi1|FALSE|unique (ssRNA)
RNA: GGGAGUUCUACAGUCCGACGAUCCACAAAAUCUGCAUUGUCCAUGUGAGUAAAGUAAAAUAAUUCCUGUUAUUUUUUUCUGUUAGAAAUAAGUAUGGAGGAUAUGUUUUUAAAAAUUUAUGAGUUAAUUGAAAUAUCCAUAUACAACAGAGGAUUGAGCAUCA
B16: chr8:120459219:120459329:+|CDS|ENSG00000172167|unk|total|mutant (ssRNA)
RNA: GGGAGUUCUACAGUCCGACGAUCUUUGGAUUUGAAAUCCGUUUUCCUGAAUUUUGUUUAAAGGGAGUCACACUUAAGAAUUUCCGUACUUCUAAUUUAAAUACUGACUUCCUUGCCAAAAAGAUCAUACCAUCAAAGGAUAAGCAACAGAGGAUUGAGCAUCA
B17: chr1:89935720:89935824:+|3pUTR|ENSG00000171492|msi1|FALSE|bound_elsewhere (ssRNA)
RNA: GGGAGUUCUACAGUCCGACGAUCUACAAGAUAAUGCAUUUUAGGAGUAGAUACAUCUUUUAAAAUAAAACAGAGAGGAUGCAUAGAAGGCUGAUAGAAGACAUAACUGAAUGUUCAAUGUUUGUAGGGUUUUAAGUCAUUCAUCAACAGAGGAUUGAGCAUCA
B18: ENSG00000198589:be:win_5501|CDS|ENSG00000198589|bound_else_gene|NA|bound_elsewhere_windowed (ssRNA)
RNA: GGGAGUUCUACAGUCCGACGAUCUGCUUAUAGAAGGAACAAGUCUGGUUUGCAUGAAGUCGAGUAGUUCAGUUGUGGAAUUGGUUAUGCUACUGUGUUCUCAGGAGUGGCAAAAUUCUAUUCAGAAGAAUGCAGGCCUUGCUUCAACAGAGGAUUGAGCAUCA
B19: chr8:65724783:65724899:-|CDS|ENSG00000205268|unk|FALSE|unique (ssRNA)
RNA: GGGAGUUCUACAGUCCGACGAUCAUAGGUGCUCUGAUACUAGCCACAGACAUCAGUCGCCAGAAUGAGUAUCUGUCUUUGUUUAGGUCCCAUUUGGAUAGAGGUGAUUUAUGCCUAGAAGACACCAGACACAGACAUUUGGUUCAACAGAGGAUUGAGCAUCA
B20: chr7:74195289:74195308:+|CDS_3pUTR|ENSG00000106682|msi1_unk|FALSE|overlapping (ssRNA)
RNA: GGGAGUUCUACAGUCCGACGAUCGCGACGCCCCUCAAUCAAGUAGCCAAUCCCAACUCUGCUAUCUUCGGGGGUGCCAGGCCUAGAGAGGAAGUCGUUCAAAAGGAGCAAGAAUGAGCCUGCGGUUGGGAGGGAAUGGGGCGUCAACAGAGGAUUGAGCAUCA
B21: chr12:27755550:27755651:+|3pUTR|ENSG00000061794|msi1|FALSE|unique (ssRNA)
RNA: GGGAGUUCUACAGUCCGACGAUCAUACUAAUGCUUAAUGGCAAUGAUUACUCCAGAGUUUUUUAAUUUUUACACUGGGGCAAUAGACUAGGAGGUCUCUGAUUUCUUCUUGGUCUAAAGUGUUUUGAUUUUAUUUCUACAUAACAACAGAGGAUUGAGCAUCA
B22: chr12:48782793:48782894:-|CDS|ENSG00000174233|msi1|total|mutant (ssRNA)
RNA: GGGAGUUCUACAGUCCGACGAUCGCACUGUUGGCCUGUGCCGCCGCCCUGUUCGUGGGGCUCAUGGUGGUGUGUAACCGGCACCGCUUCCGCCAGGACUCCAUGUGGGUGGUGAGCUACGUGGUGCUGGGCAUCCUGGCGGCACAACAGAGGAUUGAGCAUCA

Molecular target: MSI1 full-length (mouse, UniProt Q61474 1-362)
Experiment: nsRBNS (natural sequence RNA bind-n-seq); RBNS binding buffer (assumed for nsRBNS): 25 mM Tris pH 7.5, 150 mM KCl, 3 mM MgCl2, 0.01% Triton X-100, 500 ug/ml BSA, 20 U/ml SUPERase-In, 4 C; UNK is unkempt and MSI1 is Musashi-1; names of the RNAs are library labels; protein concentration not given here; high values mean tight binding

UniProt Q61474, sequence (Q61474 whole entry): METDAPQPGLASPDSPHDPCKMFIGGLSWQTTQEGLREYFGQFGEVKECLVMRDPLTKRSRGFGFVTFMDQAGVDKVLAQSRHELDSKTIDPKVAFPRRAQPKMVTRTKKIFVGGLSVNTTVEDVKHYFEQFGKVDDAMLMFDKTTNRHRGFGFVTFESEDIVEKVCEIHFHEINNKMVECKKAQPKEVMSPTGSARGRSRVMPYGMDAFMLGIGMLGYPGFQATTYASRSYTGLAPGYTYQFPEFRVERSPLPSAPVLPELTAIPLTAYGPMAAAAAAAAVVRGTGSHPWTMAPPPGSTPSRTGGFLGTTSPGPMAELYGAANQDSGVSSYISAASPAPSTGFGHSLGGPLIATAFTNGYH

Binder	binding signal
B1	0.287 enrichment R
B2	0.485 enrichment R
B3	1.06 enrichment R
B4	0.34 enrichment R
B5	0.392 enrichment R
B6	0.351 enrichment R
B7	0.338 enrichment R
B8	1.92 enrichment R
B9	0.804 enrichment R
B10	1.88 enrichment R
B11	0.79 enrichment R
B12	0.541 enrichment R
B13	1.94 enrichment R
B14	0.9 enrichment R
B15	1.68 enrichment R
B16	0.651 enrichment R
B17	3.59 enrichment R
B18	0.522 enrichment R
B19	0.912 enrichment R
B20	0.558 enrichment R
B21	0.471 enrichment R
B22	0.346 enrichment R
